# The supplement of paper PMC8728848
# Some of the results follow.
# B1: CLECb-Precomplexed (Mus musculus), P43025 (protein)
# chain: MAKNGLVLCILVVSLLLDQTDGYPSRMKARKHSKRRVKAKDDDLKSQVEKLWREVNALKEMQALQTVCLRGTKVHKKCYLASEGLKHYHEANEDCISKGGTLVVPRNSDEINALRDYGKRSLPGVNDFWLGINDMVTEGKFLDVHGFAVSFLNWDRAQPSGGKRENCVLFSQSAQGKWSDEACRSSKRYICEFIIPTRTRPLEQKLISEEDLAANDILDYKDDDDKV
# How the values were obtained:
# Experiment in all cases: glycan array binding signal (z-score within array); higher = stronger binding
# Conditions in all cases: glycan notation: IUPAC condensed, linker removed
# Glc(b1-6)Glc = target: Glc(b1-6)Glc
# How it was run: (§1)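 The binding signal is a Z-score computed within each array and averaged over linkers. Arrays of the same protein sequence at different concentrations or buffers were also averaged together. Data originate from 3228 arrays in the Consortium for Functional Glycomics database, kept only where the protein sequence was available.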
# GlcA(b1-3)Gal = target: GlcA(b1-3)Gal
# How it was run: as §1
# GlcA(b1-3)GlcNAc = target: GlcA(b1-3)GlcNAc
# How it was run: as §1
# GlcA(b1-6)Gal = target: GlcA(b1-6)Gal
# How it was run: as §1
# [1] = target: GlcA3S(b1-3)Gal(b1-4)GlcNAc(b1-2)Man
# How it was run: as §1
# [2] = target: GlcA3S(b1-3)Gal(b1-4)GlcNAc(b1-3)Gal(b1-4)Glc
# How it was run: as §1
# [3] = target: GlcNAc(a1-3)Gal(b1-4)GlcNAc
# How it was run: as §1
# [4] = target: GlcNAc(a1-4)Gal(b1-3)GlcNAc
# How it was run: as §1
# [5] = target: GlcNAc(a1-4)Gal(b1-4)GalNAc
# How it was run: as §1
# [6] = target: GlcNAc(a1-4)Gal(b1-4)GlcNAc
# How it was run: as §1
# [7] = target: GlcNAc(a1-4)Gal(b1-4)GlcNAc(b1-3)Gal(b1-4)Glc
# How it was run: as §1
# [8] = target: GlcNAc(a1-4)Gal(b1-4)GlcNAc(b1-3)Gal(b1-4)GlcNAc
# How it was run: as §1
# [9] = target: GlcNAc(a1-4)Gal(b1-4)GlcNAc(b1-3)Gal(b1-4)GlcNAc(b1-3)Gal(b1-4)GlcNAc
# How it was run: as §1
# [10] = target: GlcNAc(a1-4)Gal(b1-4)GlcNAc(b1-3)Gal(b1-4)[Fuc(a1-3)]GlcNAc(b1-3)Gal(b1-4)[Fuc(a1-3)]GlcNAc
# How it was run: as §1
# [11] = target: GlcNAc(a1-6)Gal(b1-4)GlcNAc
# How it was run: as §1
# [12] = target: GlcNAc(b1-2)Gal(b1-3)GalNAc
# How it was run: as §1
# [13] = target: GlcNAc(b1-2)Man(a1-3)[GlcNAc(b1-2)Man(a1-6)]Man(b1-4)GlcNAc(b1-4)GlcNAc
# How it was run: as §1
# [14] = target: GlcNAc(b1-2)Man(a1-3)[GlcNAc(b1-2)Man(a1-6)]Man(b1-4)GlcNAc(b1-4)[Fuc(a1-6)]GlcNAc
# How it was run: as §1
# [15] = target: GlcNAc(b1-2)Man(a1-3)[GlcNAc(b1-4)][GlcNAc(b1-2)Man(a1-6)]Man(b1-4)GlcNAc(b1-4)GlcNAc
# How it was run: as §1
# [16] = target: GlcNAc(b1-2)Man(a1-3)[GlcNAc(b1-4)][GlcNAc(b1-2)Man(a1-6)]Man(b1-4)GlcNAc(b1-4)[Fuc(a1-6)]GlcNAc
# How it was run: as §1
# [17] = target: GlcNAc(b1-2)[GlcNAc(b1-4)]Man(a1-3)[GlcNAc(b1-2)Man(a1-6)]Man(b1-4)GlcNAc(b1-4)GlcNAc
# How it was run: as §1
# [18] = target: GlcNAc(b1-2)[GlcNAc(b1-4)]Man(a1-3)[GlcNAc(b1-4)][GlcNAc(b1-2)Man(a1-6)]Man(b1-4)GlcNAc(b1-4)GlcNAc
# How it was run: as §1
# [19] = target: GlcNAc(b1-2)[GlcNAc(b1-4)]Man(a1-3)[GlcNAc(b1-4)][GlcNAc(b1-2)[GlcNAc(b1-6)]Man(a1-6)]Man(b1-4)GlcNAc(b1-4)GlcNAc
# How it was run: as §1
# [20] = target: GlcNAc(b1-2)[GlcNAc(b1-4)]Man(a1-3)[GlcNAc(b1-4)][GlcNAc(b1-2)[GlcNAc(b1-6)]Man(a1-6)]Man(b1-4)GlcNAc(b1-4)[Fuc(a1-6)]GlcNAc
# How it was run: as §1
# [21] = target: GlcNAc(b1-2)[GlcNAc(b1-6)]Man(a1-6)[GlcNAc(b1-2)Man(a1-3)]Man(b1-4)GlcNAc(b1-4)GlcNAc
# How it was run: as §1
# [22] = target: GlcNAc(b1-2)[GlcNAc(b1-6)]Man(a1-6)[GlcNAc(b1-2)Man(a1-3)]Man(b1-4)GlcNAc(b1-4)[Fuc(a1-6)]GlcNAc
# How it was run: as §1
# [23] = target: GlcNAc(b1-2)[GlcNAc(b1-6)]Man(a1-6)[GlcNAc(b1-4)][GlcNAc(b1-2)Man(a1-3)]Man(b1-4)GlcNAc(b1-4)GlcNAc
# How it was run: as §1
# GlcNAc(b1-3)Fuc = target: GlcNAc(b1-3)Fuc
# How it was run: as §1
# GlcNAc(b1-3)Gal = target: GlcNAc(b1-3)Gal
# How it was run: as §1
# [24] = target: GlcNAc(b1-3)Gal(b1-3)GalNAc
# How it was run: as §1
# GlcNAc(b1-3)Gal(b1-4)Glc = target: GlcNAc(b1-3)Gal(b1-4)Glc
# How it was run: as §1
# [25] = target: GlcNAc(b1-3)Gal(b1-4)GlcNAc
# How it was run: as §1
# [26] = target: GlcNAc(b1-3)Gal(b1-4)GlcNAc(b1-2)Man(a1-3)[GlcNAc(b1-3)Gal(b1-4)GlcNAc(b1-2)Man(a1-6)]Man(b1-4)GlcNAc(b1-4)GlcNAc
# How it was run: as §1
# [27] = target: GlcNAc(b1-3)Gal(b1-4)GlcNAc(b1-2)Man(a1-3)[GlcNAc(b1-3)Gal(b1-4)GlcNAc(b1-2)Man(a1-6)]Man(b1-4)GlcNAc(b1-4)[Fuc(a1-6)]GlcNAc
# How it was run: as §1
# [28] = target: GlcNAc(b1-3)Gal(b1-4)GlcNAc(b1-2)[GlcNAc(b1-3)Gal(b1-4)GlcNAc(b1-6)]Man(a1-6)[GlcNAc(b1-3)Gal(b1-4)GlcNAc(b1-2)Man(a1-3)]Man(b1-4)GlcNAc(b1-4)GlcNAc
# How it was run: as §1
# [29] = target: GlcNAc(b1-3)Gal(b1-4)GlcNAc(b1-3)Gal(b1-4)GlcNAc
# How it was run: as §1
# [30] = target: GlcNAc(b1-3)Gal(b1-4)GlcNAc(b1-3)Gal(b1-4)GlcNAc(b1-2)Man(a1-3)[GlcNAc(b1-3)Gal(b1-4)GlcNAc(b1-3)Gal(b1-4)GlcNAc(b1-2)Man(a1-6)]Man(b1-4)GlcNAc(b1-4)GlcNAc
# How it was run: as §1
# [31] = target: GlcNAc(b1-3)Gal(b1-4)GlcNAc(b1-3)Gal(b1-4)GlcNAc(b1-2)Man(a1-3)[GlcNAc(b1-3)Gal(b1-4)GlcNAc(b1-3)Gal(b1-4)GlcNAc(b1-2)Man(a1-6)]Man(b1-4)GlcNAc(b1-4)[Fuc(a1-6)]GlcNAc
# How it was run: as §1
# [32] = target: GlcNAc(b1-3)Gal(b1-4)GlcNAc(b1-3)Gal(b1-4)GlcNAc(b1-2)[GlcNAc(b1-3)Gal(b1-4)GlcNAc(b1-3)Gal(b1-4)GlcNAc(b1-6)]Man(a1-6)[GlcNAc(b1-3)Gal(b1-4)GlcNAc(b1-3)Gal(b1-4)GlcNAc(b1-2)Man(a1-3)]Man(b1-4)GlcNAc(b1-4)[Fuc(a1-6)]GlcNAc
# How it was run: as §1
# [33] = target: GlcNAc(b1-3)Gal(b1-4)GlcNAc(b1-3)Gal(b1-4)GlcNAc(b1-3)Gal(b1-4)GlcNAc(b1-2)Man(a1-3)[GlcNAc(b1-3)Gal(b1-4)GlcNAc(b1-3)Gal(b1-4)GlcNAc(b1-3)Gal(b1-4)GlcNAc(b1-2)Man(a1-6)]Man(b1-4)GlcNAc(b1-4)GlcNAc
# How it was run: as §1
# [34] = target: GlcNAc(b1-3)Gal(b1-4)GlcNAc(b1-3)Gal(b1-4)GlcNAc(b1-3)Gal(b1-4)GlcNAc(b1-2)Man(a1-3)[GlcNAc(b1-3)Gal(b1-4)GlcNAc(b1-3)Gal(b1-4)GlcNAc(b1-3)Gal(b1-4)GlcNAc(b1-2)Man(a1-6)]Man(b1-4)GlcNAc(b1-4)[Fuc(a1-6)]GlcNAc
# How it was run: as §1
# [35] = target: GlcNAc(b1-3)Gal(b1-4)GlcNAc(b1-3)Gal(b1-4)GlcNAc(b1-3)Gal(b1-4)GlcNAc(b1-2)[GlcNAc(b1-3)Gal(b1-4)GlcNAc(b1-3)Gal(b1-4)GlcNAc(b1-3)Gal(b1-4)GlcNAc(b1-6)]Man(a1-6)[GlcNAc(b1-3)Gal(b1-4)GlcNAc(b1-3)Gal(b1-4)GlcNAc(b1-3)Gal(b1-4)GlcNAc(b1-2)Man(a1-3)]Man(b1-4)GlcNAc(b1-4)[Fuc(a1-6)]GlcNAc
# How it was run: as §1
# [36] = target: GlcNAc(b1-3)Gal(b1-4)GlcNAc(b1-3)Gal(b1-4)GlcNAc(b1-3)Gal(b1-4)GlcNAc(b1-3)Gal(b1-4)GlcNAc(b1-2)Man(a1-3)[GlcNAc(b1-3)Gal(b1-4)GlcNAc(b1-3)Gal(b1-4)GlcNAc(b1-3)Gal(b1-4)GlcNAc(b1-3)Gal(b1-4)GlcNAc(b1-2)Man(a1-6)]Man(b1-4)GlcNAc(b1-4)GlcNAc
# How it was run: as §1
# [37] = target: GlcNAc(b1-3)Gal(b1-4)GlcNAc(b1-3)Gal(b1-4)GlcNAc(b1-3)Gal(b1-4)GlcNAc(b1-3)Gal(b1-4)GlcNAc(b1-2)Man(a1-3)[GlcNAc(b1-3)Gal(b1-4)GlcNAc(b1-3)Gal(b1-4)GlcNAc(b1-3)Gal(b1-4)GlcNAc(b1-3)Gal(b1-4)GlcNAc(b1-2)Man(a1-6)]Man(b1-4)GlcNAc(b1-4)[Fuc(a1-6)]GlcNAc
# How it was run: as §1
# [38] = target: GlcNAc(b1-3)Gal(b1-4)GlcNAc(b1-3)Gal(b1-4)GlcNAc(b1-3)Gal(b1-4)GlcNAc(b1-3)Gal(b1-4)GlcNAc(b1-2)[GlcNAc(b1-3)Gal(b1-4)GlcNAc(b1-3)Gal(b1-4)GlcNAc(b1-3)Gal(b1-4)GlcNAc(b1-3)Gal(b1-4)GlcNAc(b1-6)]Man(a1-6)[GlcNAc(b1-3)Gal(b1-4)GlcNAc(b1-3)Gal(b1-4)GlcNAc(b1-3)Gal(b1-4)GlcNAc(b1-3)Gal(b1-4)GlcNAc(b1-2)Man(a1-3)]Man(b1-4)GlcNAc(b1-4)[Fuc(a1-6)]GlcNAc
# How it was run: as §1
binder,measurement,setting,value
B1,glycan array binding signal (z-score),Glc(b1-6)Glc,-0.261
same,glycan array binding signal (z-score),GlcA(b1-3)Gal,-0.348
same,glycan array binding signal (z-score),GlcA(b1-3)GlcNAc,-0.187
same,glycan array binding signal (z-score),GlcA(b1-6)Gal,-0.685
same,glycan array binding signal (z-score),[1],-0.481
same,glycan array binding signal (z-score),[2],-0.603
same,glycan array binding signal (z-score),[3],-0.6
same,glycan array binding signal (z-score),[4],-0.272
same,glycan array binding signal (z-score),[5],0.1
same,glycan array binding signal (z-score),[6],-0.387
same,glycan array binding signal (z-score),[7],-0.353
same,glycan array binding signal (z-score),[8],-0.295
same,glycan array binding signal (z-score),[9],0.019
same,glycan array binding signal (z-score),[10],0.063
same,glycan array binding signal (z-score),[11],-0.456
same,glycan array binding signal (z-score),[12],-0.071
same,glycan array binding signal (z-score),[13],-0.332
same,glycan array binding signal (z-score),[14],-0.116
same,glycan array binding signal (z-score),[15],-0.373
same,glycan array binding signal (z-score),[16],0.065
same,glycan array binding signal (z-score),[17],-0.479
same,glycan array binding signal (z-score),[18],-0.064
same,glycan array binding signal (z-score),[19],-0.085
same,glycan array binding signal (z-score),[20],-0.505
same,glycan array binding signal (z-score),[21],-0.144
same,glycan array binding signal (z-score),[22],-0.362
same,glycan array binding signal (z-score),[23],-0.244
same,glycan array binding signal (z-score),GlcNAc(b1-3)Fuc,-0.487
same,glycan array binding signal (z-score),GlcNAc(b1-3)Gal,-0.251
same,glycan array binding signal (z-score),[24],-0.1
same,glycan array binding signal (z-score),GlcNAc(b1-3)Gal(b1-4)Glc,-0.351
same,glycan array binding signal (z-score),[25],-0.118
same,glycan array binding signal (z-score),[26],-0.043
same,glycan array binding signal (z-score),[27],-0.522
same,glycan array binding signal (z-score),[28],0.589
same,glycan array binding signal (z-score),[29],0.043
same,glycan array binding signal (z-score),[30],0.084
same,glycan array binding signal (z-score),[31],-0.475
same,glycan array binding signal (z-score),[32],0.197
same,glycan array binding signal (z-score),[33],-0.368
same,glycan array binding signal (z-score),[34],-0.255
same,glycan array binding signal (z-score),[35],-0.48
same,glycan array binding signal (z-score),[36],-0.166
same,glycan array binding signal (z-score),[37],0.081
same,glycan array binding signal (z-score),[38],-0.057
